Reference: patent US20200024338A1 (Stanford University, published 2020)

T1: human CD25 on transduced cells (human, UniProt P01589 22-272)
T1 sequence (looked up): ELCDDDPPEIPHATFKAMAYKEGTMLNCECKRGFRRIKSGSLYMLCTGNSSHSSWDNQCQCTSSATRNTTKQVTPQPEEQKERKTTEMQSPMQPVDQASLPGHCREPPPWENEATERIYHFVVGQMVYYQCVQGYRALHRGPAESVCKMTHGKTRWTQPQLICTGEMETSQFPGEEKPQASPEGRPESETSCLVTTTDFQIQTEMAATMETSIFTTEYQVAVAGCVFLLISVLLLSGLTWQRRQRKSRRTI

B1: R5 scFv-human IL2 (other)
chain: ASQITLKESGPTLVKPTQTLTLTCSFSGFSLSFSGVGVAWIRQPPGKALEWLALIYWDDDKRYSPSLKSRLTITKDTSKNQVVLTMTNMDPLDTATYYCAHREWKAFGAFDIWGQGTMVTVSSGILGSGGGGSGGGGSGGGGSQPVLTQSPSASGTPGQRVTISCSGSSSNIGSNTVNWYQQLPGTAPKLLIYSNNQRPSGVPDRFSGSKSVTSASLAISGLQSEDEAEYYCATWDDSLNGAVFGGGTQLTVLSGILGSGSGSGSGS[gap - about 150 residues]AAAHHHHHHHH
notes: scFv-cytokine fusion expressed in insect cells with baculovirus; also called R5-IL2; R5-1L2
B2: Z6 scFv-human IL2 (other)
chain: ASQVQLVQSGAEVKNPGASVKVSCKASGYAFTSYGISWVRQAPGQGLEWMGWISAYTRNTNYAQKFQGRVTLTTDTSTSTAYMELRSLRSDDTAIYYCARDARYSLGVGAFDVWGQGTMVTVSSGILGSGGGGSGGGGSGGGGSETTLTQSPAFMSATPGDKVSISCKASRDIDDDLNWYQQKPGEAAISIIQEATTLVPGIPPRFSGSGYGTDFTLTINNIESEDAAYYFCLQHDDVPYTFGQGTKLEIKSGILGSGSGSGSGS[gap - about 150 residues]AAAHHHHHHH
notes: scFv-cytokine fusion expressed in insect cells with baculovirus; also called Z6-IL2; Z6-1L2

Biological target: T1, human CD25 on transduced cells
Experiment: cell-based or functional assay

Binder | increase of Wnt3a reporter activity (luciferase, HEK 293 STF cells transduced with CD25) | organoid growth (alamarBlue fluorescence) of CD25+ human colon organoids relative to IL-2 control
B1 | 9.5 fold | 7.3 fold
B2 | 41 fold | 9.4 fold
